Assay results: PubChem BioAssay (Tox21)
This list was built around the results that the source calls inconclusive (neither active nor inactive); the mix of calls is not that of the screen. For some of these results: Potencies beside an inconclusive call are fits to weak or partial responses and may not hold up. Active and inactive are the calls of the source. Unless noted, calls follow the shape of the dose curve; as a rule, active = well fitted curve in the direction sought with a large enough effect in the repeat runs; inconclusive = weak or mixed curves; inactive = no such curve, though single readings can be large; an effect the other way counts as inactive or inconclusive.

Tests used:
[1] = qHTS assay to identify small molecule antagonists of the estrogen related receptor (ERR) signaling pathway - cell viability counter screen (AID 1224818); also: potency is read from the fitted curve at half-maximal effect; as to viability change, negative = cytotoxic: % is scaled to controls: 0 for no effect and ±100 for the full control effect
How it was run: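 Viability of ERR cells, CellTiter-Fluor fluorescence; 17.5 h compound exposure at 37 C, DMSO vehicle; 30 min reagent incubation at 37 C/5% CO2.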

[2] = system: estrogen-related receptor alpha (ERRalpha) with PGC-1alpha coactivator, human; assay: qHTS assay to identify small molecule antagonists of the estrogen related receptor signaling pathway with the pleiotropic PPARgamma coactivator (PGC) (AID 1224821; calls by dose curve; also: potency is read from the fitted curve at half-maximal effect; nearly all actives have a fitted effect of over 50% in size)
How it was run: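 A PGC/ERR cell line supplied by NTP is seeded, allowed 6 h at 37 C, and treated with test compounds in DMSO for 18 h. Signal is then measured as luciferase luminescence using One-Glo.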

[3] = qHTS assay to identify small molecule antagonists of the estrogen related receptor signaling pathway with the pleiotropic PPARgamma coactivator (PGC) cell viability counter screen (AID 1224822; also: potency is read from the fitted curve at half-maximal effect)
How it was run: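 17.5 h compound treatment of PGC/ERR cells at 37 C; readout CellTiter-Fluor fluorescence; run alongside the PGC/ERR antagonist screen to flag cytotoxic compounds.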

[4] = qHTS assay for small molecule disruptors of the mitochondrial membrane potential (AID 720635); details: HepG2 mitochondrial membrane potential, Mito-MPS dye ratio; ratio activity, negative = MMP loss: at 83.2 µM (top of the series) unless noted; also: potency is read from the fitted curve at half-maximal effect; as to ratio activity, negative = MMP loss: % is scaled to controls: 0 for no effect and ±100 for the full control effect
How it was run: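 Mitochondrial membrane potential tracked with Mito-MPS dye, red aggregates (ex 540/em 590 nm) against green monomers (ex 490/em 535 nm). Compound treatment 1 hr at 37C, dye 30 min in HepG2.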

[5] = qHTS assay to identify small molecule antagonists of the estrogen receptor alpha (ER-alpha) signaling pathway using the BG1 cell line - cell viability counter screen (AID 743081); details: BG1Luc4E2 viability, CellTiter-Fluor, 22 h; activity change, negative = cytotoxicity: at 70.3 µM (top of the series) unless noted;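 also: compound given together with 17beta-estradiol as the ER stimulus; % is scaled to controls: 0 for no effect and ±100 for the full control effect; nearly all actives have a fitted effect of over 45% in size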
[6] = qHTS assay to identify small molecule antagonists of the peroxisome proliferator-activated receptor gamma (PPARg) signaling pathway - cell viability counter screen (AID 743194); details: PPARg-bla HEK293H viability, CellTiter-Glo luminescence, 17 h, co-treated with 50 nM rosiglitazone; activity change, negative = cytotoxicity: at 62.6 µM (top of the series) unless noted; also: % is scaled to controls: 0 for no effect and ±100 for the full control effect; nearly all actives have a fitted effect of over 55% in size
How it was run: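 Viability was measured as CellTiter-Glo luminescence in GeneBLAzer PPARg UAS-bla HEK293H cells. These cells had been exposed 17 h at 37 C to compounds together with rosiglitazone at 50 nM final, with the beta-lactamase readout taken in the same wells.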

[7] = qHTS assay for small molecule agonists of the antioxidant response element (ARE) signaling pathway - cell viability counter screen (AID 743203; calls by dose curve; also: % is scaled to controls: 0 for no effect and ±100 for the full control effect; nearly all actives have a fitted effect of over 55% in size); details: ARE-bla HepG2 viability, CellTiter-Glo luminescence, 16 h; viability change, negative = cytotoxic: at 73.3 µM (top of the series)
How it was run: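 ATP content via CellTiter-Glo luminescence served as the viability measure. Cells: ARE-bla HepG2, 2,000 per well. Exposure: 16 hrs, 37C/5% CO2.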

[8] = qHTS assay for small molecule activators of the heat shock response signaling pathway (AID 743210; active = well fitted activation curve with a large enough effect in the signal ratio in the repeat runs, with a control signal flat, not every such curve was filed as active; inconclusive = weak or mixed curves; the % refers to the signal ratio; also: % is scaled to controls: 0 for no effect and ±100 for the full control effect); details: HeLa HSE-bla reporter, beta-lactamase ratio, 5 h; activation: at 62.6 µM (top of the series) unless noted
How it was run: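 Compound exposure lasted 5 h at 37 C in HeLa cells carrying a heat-shock-element-driven beta-lactamase reporter. Read-out: fluorescence intensity after 2.5 h room-temperature loading with LiveBLAzer B/G FRET substrate.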

[9] = qHTS RealTime-Glo MT Cell Viability Assay in HEK293 cells - 16 hour (AID 1224872); also: top concentration of the series differs between compounds; % is scaled to controls: 0 for no effect and ±100 for the full control effect; nearly all actives have a fitted effect of over 50% in size
How it was run: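 Tox21 10K qHTS, HEK293, 600 cells/well, RealTime-Glo reagent co-dispensed with cells; 5 h preincubation, compound by pintool, 37 C, luminescence at 0–40 h.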

[10] = qHTS assay to identify small molecule antagonists of the androgen receptor (AR) signaling pathway using the MDA cell line in the presence of 0.5 nM R1881 - cell viability counter screen (AID 1259242); also: % is scaled to controls: 0 for no effect and ±100 for the full control effect; nearly all actives have a fitted effect of over 45% in size
How it was run: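 Cells seeded at 3,000/well and allowed 5 hr at 37C, 0% CO2 before compound transfer and R1881 (0.5 nM final) addition; 16 hr later, live-cell protease fluorescence indicated cytotoxicity.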

[11] = qHTS assay to identify small molecule agonists of the sonic hedgehog signaling (Shh) pathway - cell viability counter screen (AID 1259366); also: potency is read from the fitted curve at half-maximal effect; nearly all actives have a fitted effect of over 50% in size
How it was run: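 NIH/3T3-derived Gli1-Luc reporter cells, 2,000 per well, received compound after 4 h and were treated about 23 h at 37C. Viability measured in the same wells by CellTiter-Fluor fluorescence after 1 h.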

[12] = qHTS assay to identify small molecule antagonists of the sonic hedgehog signaling (Shh) pathway (AID 1259369; calls by dose curve; also: potency is read from the fitted curve at half-maximal effect; nearly all actives have a fitted effect of over 45% in size)
How it was run: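 Read-out is luminescence from a firefly luciferase gene controlled by the Gli1 response element, in 3T3Gli1-Luc cells pre-incubated 4hr then exposed to compounds and conditioned medium for 24hr.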

[13] = qHTS assay to identify small molecule agonists of the estrogen receptor beta (ER-beta) signaling pathway - cell viability counter screen (AID 1259380); also: % is scaled to controls: 0 for no effect and ±100 for the full control effect; nearly all actives have a fitted effect of over 30% in size
How it was run: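 Compounds dissolved in DMSO were pin-transferred onto ER-beta-UAS-bla HEK293T cells that had settled 6 hr, and exposure ran 16 hr at 37C. Following the reporter read, CellTiter-Glo luminescence after 30 min at room temperature indicated cytotoxicity.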

[14] = target: Thyrotropin receptor (Homo sapiens) (UniProt P16473); assay: qHTS assay to identify small molecule antagonists of the thyroid stimulating hormone receptor (TSHR) signaling pathway (AID 1259385; calls by dose curve; also: % is scaled to controls: 0 for no effect and ±100 for the full control effect; nearly all actives have a fitted effect of over 20% in size); details: TSHR-HEK293 cAMP HTRF, TSH-stimulated antagonist mode; activity change, negative = inhibition: at 92.4 µM (top of the series) unless noted
UniProt P16473, sequence (P16473 whole entry, looked up): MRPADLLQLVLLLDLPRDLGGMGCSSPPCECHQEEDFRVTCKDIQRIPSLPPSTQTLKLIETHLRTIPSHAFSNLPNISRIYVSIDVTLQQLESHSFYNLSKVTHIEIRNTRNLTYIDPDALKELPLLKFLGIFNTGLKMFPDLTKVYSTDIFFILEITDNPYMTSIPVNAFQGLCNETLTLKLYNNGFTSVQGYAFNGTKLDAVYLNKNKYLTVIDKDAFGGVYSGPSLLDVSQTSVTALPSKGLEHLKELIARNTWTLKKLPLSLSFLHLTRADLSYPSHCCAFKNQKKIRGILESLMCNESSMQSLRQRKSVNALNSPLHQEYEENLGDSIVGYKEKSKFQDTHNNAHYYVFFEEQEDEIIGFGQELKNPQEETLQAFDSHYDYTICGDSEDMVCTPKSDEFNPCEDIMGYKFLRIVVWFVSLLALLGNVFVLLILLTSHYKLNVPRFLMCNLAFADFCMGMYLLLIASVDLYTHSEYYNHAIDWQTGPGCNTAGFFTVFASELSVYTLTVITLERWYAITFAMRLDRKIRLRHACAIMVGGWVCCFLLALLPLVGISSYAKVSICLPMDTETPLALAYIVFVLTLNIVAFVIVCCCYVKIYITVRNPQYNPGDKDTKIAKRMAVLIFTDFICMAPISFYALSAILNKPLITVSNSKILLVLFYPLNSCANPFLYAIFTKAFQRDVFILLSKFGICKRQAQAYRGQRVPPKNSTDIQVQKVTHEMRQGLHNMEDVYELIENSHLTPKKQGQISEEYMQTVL
How it was run: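 Antagonist mode: compound-treated TSHR-expressing HEK293 cells were stimulated with 1.5 ng/mL TSH (final) in presence of Ro20-1724 for 30 min at RT. HTRF cAMP detection after 1 h; each compound tested at 15 concentrations, triplicate.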
Tags tell the direction and shape of the fitted curve or compound fluorescence and quenching.

O=C(NOCC1CC1)c1cc(Br)c(F)c(F)c1Nc1ccc(I)cc1Cl
inconclusive: Potency [1] 21.1 µM [cytotoxic, partial curve, poor fit] | Potency [2] 3.35 µM [inhibitor] | Potency [3] 31 µM [cytotoxic]

CCN(CC)CCNC(=O)c1ccc(N)cc1
inactive: Potency [7] | Potency [8] | Potency [1] | Potency [9] | Potency [10] | Potency [13] | Potency [14]
inconclusive: ratio activity, negative = MMP loss [4] 51.7% [at 95.3 µM] | activity change, negative = cytotoxicity [5] -38% [cytotoxic] | activity change, negative = cytotoxicity [6] 0.165% [cytotoxic] | Potency [11] 0.119 µM [cytotoxic, single point] | Potency [12] 0.119 µM [inhibitor, single point]
active: Potency [4] 13.3 µM
